# The other results are listed elsewhere or left out.
# Assays:
# Experiment in all cases: glycan array binding signal (z-score within array); higher = stronger binding
# Conditions in all cases: glycan notation: IUPAC condensed, linker removed
# [1] = molecular target: Neu5Ac(a2-3)Gal(b1-4)GlcNAc(b1-3)Gal(b1-4)GlcNAc(b1-3)Gal(b1-4)GlcNAc
# Summary of the method: (§1)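 Glycan array binding is given as a within-array Z-score, which can be read as non-binding when negative. The arrays, 3228 of them, came from the Consortium for Functional Glycomics database and were retained only where the protein sequence was available. Z-scores were averaged across arrays of the same protein sequence at different concentrations or buffers and across linkers.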
# [2] = molecular target: Neu5Ac(a2-3)Gal(b1-4)GlcNAc(b1-3)Gal(b1-4)GlcNAc(b1-3)Gal(b1-4)GlcNAc(b1-2)Man(a1-3)[Neu5Ac(a2-3)Gal(b1-4)GlcNAc(b1-3)Gal(b1-4)GlcNAc(b1-3)Gal(b1-4)GlcNAc(b1-2)Man(a1-6)]GalNAc
# Summary of the method: as §1
# [3] = molecular target: Neu5Ac(a2-3)Gal(b1-4)GlcNAc(b1-3)Gal(b1-4)GlcNAc(b1-3)GalNAc
# Summary of the method: as §1
# [4] = molecular target: Neu5Ac(a2-3)Gal(b1-4)GlcNAc(b1-3)Gal(b1-4)GlcNAc(b1-3)[Neu5Ac(a2-3)Gal(b1-4)GlcNAc(b1-3)Gal(b1-4)GlcNAc(b1-6)]GalNAc
# Summary of the method: as §1
# [5] = molecular target: Neu5Ac(a2-3)Gal(b1-4)GlcNAc(b1-3)Gal(b1-4)GlcNAc(b1-6)[Gal(b1-3)]GalNAc
# Summary of the method: as §1
# [6] = molecular target: Neu5Ac(a2-3)Gal(b1-4)GlcNAc(b1-3)Gal(b1-4)[Fuc(a1-3)]GlcNAc
# Summary of the method: as §1
# [7] = molecular target: Neu5Ac(a2-3)Gal(b1-4)GlcNAc(b1-3)GalNAc
# Summary of the method: as §1
# [8] = molecular target: Neu5Ac(a2-3)Gal(b1-4)GlcNAc(b1-3)[Neu5Ac(a2-3)Gal(b1-4)GlcNAc(b1-6)]GalNAc
# Summary of the method: as §1
# [9] = molecular target: Neu5Ac(a2-3)Gal(b1-4)GlcNAc(b1-6)GalNAc
# Summary of the method: as §1
# [10] = molecular target: Neu5Ac(a2-3)Gal(b1-4)GlcNAc(b1-6)[Gal(b1-3)]GalNAc
# Summary of the method: as §1
# [11] = molecular target: Neu5Ac(a2-3)Gal(b1-4)GlcNAc(b1-6)[Neu5Ac(a2-3)Gal(b1-3)]GalNAc
# Summary of the method: as §1
# [12] = molecular target: Neu5Ac(a2-3)Gal(b1-4)GlcNAc6S
# Summary of the method: as §1
# [13] = molecular target: Neu5Ac(a2-3)Gal(b1-4)[Fuc(a1-3)]GlcNAc
# Summary of the method: as §1
# [14] = molecular target: Neu5Ac(a2-3)Gal(b1-4)[Fuc(a1-3)]GlcNAc(b1-2)Man
# Summary of the method: as §1
# [15] = molecular target: Neu5Ac(a2-3)Gal(b1-4)[Fuc(a1-3)]GlcNAc(b1-3)Gal
# Summary of the method: as §1
# [16] = molecular target: Neu5Ac(a2-3)Gal(b1-4)[Fuc(a1-3)]GlcNAc(b1-3)Gal(b1-4)GlcNAc
# Summary of the method: as §1
# [17] = molecular target: Neu5Ac(a2-3)Gal(b1-4)[Fuc(a1-3)]GlcNAc(b1-3)Gal(b1-4)[Fuc(a1-3)]GlcNAc(b1-3)Gal(b1-4)[Fuc(a1-3)]GlcNAc
# Summary of the method: as §1
# [18] = molecular target: Neu5Ac(a2-3)Gal(b1-4)[Fuc(a1-3)]GlcNAc(b1-3)GalNAc
# Summary of the method: as §1
# [19] = molecular target: Neu5Ac(a2-3)Gal(b1-4)[Fuc(a1-3)]GlcNAc(b1-6)[Gal(b1-3)]GalNAc
# Summary of the method: as §1
# [20] = molecular target: Neu5Ac(a2-3)Gal(b1-4)[Fuc(a1-3)]GlcNAc(b1-6)[Neu5Ac(a2-3)Gal(b1-3)]GalNAc
# Summary of the method: as §1
# [21] = molecular target: Neu5Ac(a2-3)Gal(b1-4)[Fuc(a1-3)]GlcNAc6S
# Summary of the method: as §1
# [22] = molecular target: Neu5Ac(a2-3)Gal6S(b1-4)GlcNAc
# Summary of the method: as §1
# [23] = molecular target: Neu5Ac(a2-3)Gal6S(b1-4)[Fuc(a1-3)]GlcNAc
# Summary of the method: as §1
# Neu5Ac(a2-3)GalNAc = molecular target: Neu5Ac(a2-3)GalNAc
# Summary of the method: as §1
# [24] = molecular target: Neu5Ac(a2-3)GalNAc(b1-4)GlcNAc
# Summary of the method: as §1
# [25] = molecular target: Neu5Ac(a2-3)[GalNAc(b1-4)]Gal(b1-4)Glc
# Summary of the method: as §1
# [26] = molecular target: Neu5Ac(a2-3)[GalNAc(b1-4)]Gal(b1-4)GlcNAc
# Summary of the method: as §1
# [27] = molecular target: Neu5Ac(a2-3)[GalNAc(b1-4)]Gal(b1-4)GlcNAc(b1-3)GalNAc
# Summary of the method: as §1
# [28] = molecular target: Neu5Ac(a2-3)[Neu5Ac(a2-6)]GalNAc
# Summary of the method: as §1
# Neu5Ac(a2-6)Gal = molecular target: Neu5Ac(a2-6)Gal
# Summary of the method: as §1
# [29] = molecular target: Neu5Ac(a2-6)Gal(b1-3)GlcNAc(b1-3)[Gal(b1-4)GlcNAc(b1-6)]Gal(b1-4)Glc
# Summary of the method: as §1
# Neu5Ac(a2-6)Gal(b1-4)Glc = molecular target: Neu5Ac(a2-6)Gal(b1-4)Glc
# Summary of the method: as §1
# [30] = molecular target: Neu5Ac(a2-6)Gal(b1-4)GlcNAc
# Summary of the method: as §1
# [31] = molecular target: Neu5Ac(a2-6)Gal(b1-4)GlcNAc(b1-2)Man
# Summary of the method: as §1
# [32] = molecular target: Neu5Ac(a2-6)Gal(b1-4)GlcNAc(b1-2)Man(a1-3)Man(b1-4)GlcNAc(b1-4)GlcNAc
# Summary of the method: as §1
# [33] = molecular target: Neu5Ac(a2-6)Gal(b1-4)GlcNAc(b1-2)Man(a1-3)[Gal(b1-4)GlcNAc(b1-2)Man(a1-6)]Man(b1-4)GlcNAc(b1-4)GlcNAc
# Summary of the method: as §1
# [34] = molecular target: Neu5Ac(a2-6)Gal(b1-4)GlcNAc(b1-2)Man(a1-3)[GlcNAc(b1-4)][Neu5Ac(a2-6)Gal(b1-4)GlcNAc(b1-2)Man(a1-6)]Man(b1-4)GlcNAc(b1-4)GlcNAc
# Summary of the method: as §1
# [35] = molecular target: Neu5Ac(a2-6)Gal(b1-4)GlcNAc(b1-2)Man(a1-3)[Man(a1-6)]Man(b1-4)GlcNAc(b1-4)GlcNAc
# Summary of the method: as §1
binder,measurement,setting,value
ClecSol-Fc (Cryptosporidium parvum) (protein) CPEGWISNGEKTRCFKLVTFDRPRTFSHGFKACNDLGGTEVETRRRNGSKETNEYPVTLASVYKLSDEEAIRRTLVEQGDIHKTANGCFVGLRKYAFFRYPPGWYWIDSGSPVSVRDSEINWTSSYNASWLLRFKFPFEKCGFFDIGGLGRRPCWLIDSELSCAVCGTVAYDSGGLNPNKYSELIKQTDEIISKEPKLDLPGYNNLNCTDAWENNLSVGLCQNVSNILDSAWSSYQSSLNFPSINFNWKEDSTNEGGDQVYHNSYLDLPRYKQKKTFYWDQDPGTIPALSDEMKLIGLSAQPTYHPLDRSSSGSFESDSTESGRANEERNDTLEEMIYKQSSDSIEDILVPVTKPIFSDYSSIGRNSGVEEVYSSNVSTISSKGVVFPNTTTSSDNDFTKNNPANSSKHTSTSTTTNTTTTTTRTTTTTTTTTTTTTTTTTTTTETTTTKKSTTATKNTTTT,glycan array binding signal (z-score),[1],-0.115
same,glycan array binding signal (z-score),[2],0.188
same,glycan array binding signal (z-score),[3],-0.205
same,glycan array binding signal (z-score),[4],-0.112
same,glycan array binding signal (z-score),[5],0.011
same,glycan array binding signal (z-score),[6],-0.012
same,glycan array binding signal (z-score),[7],-0.229
same,glycan array binding signal (z-score),[8],-0.157
same,glycan array binding signal (z-score),[9],-0.11
same,glycan array binding signal (z-score),[10],0.389
same,glycan array binding signal (z-score),[11],-0.19
same,glycan array binding signal (z-score),[12],-0.086
same,glycan array binding signal (z-score),[13],-0.268
same,glycan array binding signal (z-score),[14],0.049
same,glycan array binding signal (z-score),[15],-0.271
same,glycan array binding signal (z-score),[16],-0.177
same,glycan array binding signal (z-score),[17],-0.027
same,glycan array binding signal (z-score),[18],-0.101
same,glycan array binding signal (z-score),[19],-0.215
same,glycan array binding signal (z-score),[20],-0.001
same,glycan array binding signal (z-score),[21],0.031
same,glycan array binding signal (z-score),[22],-0.086
same,glycan array binding signal (z-score),[23],-0.22
same,glycan array binding signal (z-score),Neu5Ac(a2-3)GalNAc,0.005
same,glycan array binding signal (z-score),[24],-0.194
same,glycan array binding signal (z-score),[25],-0.247
same,glycan array binding signal (z-score),[26],-0.146
same,glycan array binding signal (z-score),[27],-0.253
same,glycan array binding signal (z-score),[28],0.394
same,glycan array binding signal (z-score),Neu5Ac(a2-6)Gal,-0.025
same,glycan array binding signal (z-score),[29],0.015
same,glycan array binding signal (z-score),Neu5Ac(a2-6)Gal(b1-4)Glc,0.133
same,glycan array binding signal (z-score),[30],-0.082
same,glycan array binding signal (z-score),[31],-0.014
same,glycan array binding signal (z-score),[32],-0.187
same,glycan array binding signal (z-score),[33],-0.229
same,glycan array binding signal (z-score),[34],-0.193
same,glycan array binding signal (z-score),[35],0.095
